In all, about 110,000 compounds were measured (“z-score”: median about -0.1, highest 2% from about 2 on). Some of the results follow. The source made the active and inactive calls.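 How the source made its calls: active means z-score in the third read window above 3 or below -3; inactive means the rest.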 Residues, ends and D or L forms follow the SMILES beside them. *: point of attachment. Cbz = O=C(OCc1ccccc1)*
target: Metabotropic glutamate receptor 8 (Rattus norvegicus) (UniProt P70579); assay: mGluR8 Gi/Go-coupled signaling modulation – cell-based, rat, thallium flux, HTS, primary screen (AID 488969); conditions: HEK293 rat mGluR8, GIRK (G protein-gated inwardly rectifying potassium channel) thallium flux, FluoZin2; at 10 µM; stronger effect = higher value; submaximal glutamate (EC20) added with thallium
Sequence of UniProt P70579 (P70579 whole entry, looked up): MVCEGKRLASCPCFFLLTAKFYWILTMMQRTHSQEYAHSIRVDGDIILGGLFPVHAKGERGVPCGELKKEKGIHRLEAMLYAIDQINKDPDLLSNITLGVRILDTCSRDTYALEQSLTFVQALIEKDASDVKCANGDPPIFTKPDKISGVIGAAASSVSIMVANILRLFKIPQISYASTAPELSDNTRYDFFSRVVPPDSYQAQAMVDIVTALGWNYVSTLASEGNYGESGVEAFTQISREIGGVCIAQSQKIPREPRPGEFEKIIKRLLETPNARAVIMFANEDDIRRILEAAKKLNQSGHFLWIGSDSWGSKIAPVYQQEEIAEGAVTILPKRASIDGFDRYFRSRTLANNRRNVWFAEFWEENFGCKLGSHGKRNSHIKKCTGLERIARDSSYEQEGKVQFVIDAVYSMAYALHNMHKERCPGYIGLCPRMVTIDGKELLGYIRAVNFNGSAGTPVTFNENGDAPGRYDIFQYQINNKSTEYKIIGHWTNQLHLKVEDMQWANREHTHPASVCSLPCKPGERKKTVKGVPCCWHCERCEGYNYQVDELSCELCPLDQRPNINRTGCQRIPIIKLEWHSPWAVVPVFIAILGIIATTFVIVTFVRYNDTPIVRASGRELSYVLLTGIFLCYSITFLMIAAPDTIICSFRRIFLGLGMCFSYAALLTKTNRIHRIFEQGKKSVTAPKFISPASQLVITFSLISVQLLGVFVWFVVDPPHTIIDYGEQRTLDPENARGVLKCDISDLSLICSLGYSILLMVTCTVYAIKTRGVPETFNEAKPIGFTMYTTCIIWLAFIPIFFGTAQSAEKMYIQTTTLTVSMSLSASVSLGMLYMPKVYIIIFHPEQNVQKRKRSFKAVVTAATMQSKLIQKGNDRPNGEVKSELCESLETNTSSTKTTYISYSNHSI

| SMILES | z-score |
| --- | --- |
| Cc1ccc(CSc2nnc(-c3cccc(S(=O)(=O)N4CCOCC4)c3)n2CC(C)C)cc1 | -0.0691 |
| CS(=O)(=O)N1N=C(c2ccco2)CC1c1ccc(Br)cc1 (stereo not given) | 1.13 |
| CCCCC(=O)Nc1ccc(C(=O)NNC(=O)c2ccco2)cc1 | -1.24 |
| COCCOC(=O)C1=C(C)OC(N)=C(C#N)C1c1ccc2c(c1)OCO2 (stereo not given) | -0.0588 |
| O=C1CC(c2ccc(F)cc2)Cc2nc(NCc3ccco3)ncc21 (stereo not given) | -0.0576 |
| CCCCn1c(O)c(C(CC)=Nc2ccc3c(c2)CCC3)c(=O)[nH]c1=O | -0.122 |
| Cn1nnnc1SCCNCc1ccncc1 | -0.142 |
| CCOC(=O)N1CCN(C(=O)CSCC(=O)Nc2nc(-c3ccc4c(c3)OCO4)cs2)CC1 | -0.296 |
| CCOc1ccccc1NC(=O)CN(c1ccc(C)cc1)S(=O)(=O)c1c(C)noc1C | 0.061 |
| Fc1ccc(NCc2ccccc2F)cc1Cl | 0.593 |
| COc1cccc(-c2cc(C(=O)N3CCCCC3C)no2)c1 (stereo not given) | 0.896 |
| CN(C)S(=O)(=O)n1cnc(-c2ccccc2)c1-c1ccccc1 | -0.218 |
| Cc1c(CCO)c(=O)[nH]n1C(=O)c1ccc(F)cc1 | -0.112 |
| CCOc1ccc(C2=Nn3c(nnc3-c3ccc(OC)cc3)SC2)cc1 | -0.0217 |
| Cc1nc2cc(C(=O)OCC(=O)Nc3ccc(C#N)cc3)ccc2n1-c1ccccc1 | -0.0383 |
| Cc1c(O)ccc(C(=O)CN2C(=O)c3ccccc3C2=O)c1O | 0.0985 |
| COc1cccc(C(=O)OCCN2CCCCC2)c1 | -0.0542 |
| COC(=O)c1sccc1NC(=S)N1CCCCC1 | 0.893 |
| Cc1onc(-c2ccccc2)c1C(=O)N/N=C/c1cccc(O)c1 | -0.0503 |
| O=C(NCCc1csc(-c2ccccc2)n1)c1cccs1 | -0.44 |
| CON(C)S(=O)(=O)c1ccc2c(c1)NC(=O)C1CCCN21 (stereo not given) | -0.981 |
| CC(C)OCCCNS(=O)(=O)c1ccc2ccccc2c1 | -0.521 |

| SMILES | z-score |
| --- | --- |
| O=C(CCSc1nc2ccccc2s1)N/N=C/c1c(O)ccc2ccccc12 | -0.021 |
| Cc1ccc(NC(=O)COC(=O)c2ccccc2Nc2ccccc2)cc1 | -0.179 |
| CCOC(=O)c1[nH]c2ccc(Br)cc2c1NC(=O)CNC | 0.478 |
| CCCCn1c(O)c(C=NCCCN(C)C)c(=O)[nH]c1=O | 0.0547 |
| Cc1ccc(C(=O)c2ccc([N+](=O)[O-])cc2)cc1 | 0.0886 |
| O=C(C1CCCCN1S(=O)(=O)c1ccccc1)N1CCN(C(c2ccccc2)c2ccccc2)CC1 (stereo not given) | 0.368 |
| CN(C)Cc1cn(CCC(=O)O)c2ccccc12 | -0.0882 |
| Fc1ccc(C2CC(c3ccco3)n3ncnc3N2)cc1 (stereo not given) | 0.253 |
| COCC(C)n1c(C)cc(C(=O)Cn2c(=O)oc3ccccc32)c1C (stereo not given) | -0.384 |
| COc1ccc(NC(=O)c2c(NC(=O)CNCc3ccco3)sc3c2CCC3)c(OC)c1 | -0.075 |
| COc1ccc(C2C(C(C)=O)=C(O)C(=O)N2CCc2ccccc2)c(OC)c1 (stereo not given) | -0.955 |
| CCN(CC)S(=O)(=O)c1cccc(-c2nnc(SCc3nnc(-c4ccccc4)o3)n2C)c1 | -0.425 |
| CC(=O)c1c(C)[nH]c(C(=O)N2CCN(c3ncccn3)CC2)c1C | -0.0273 |
| COCCOC(=O)C1=C(C)N=C2SCCC(=O)N2C1c1ccc(C(=O)OC)cc1 (stereo not given) | -0.0728 |
| COC(=O)C(NNc1ccc(F)cc1)(NC(=O)c1ccccc1)C(F)(F)F (stereo not given) | 0.581 |
| CCCOc1ccc(-c2nnc(-c3cccs3)o2)cc1 | -0.02 |
| CSc1cc(-c2ccccc2)n(Cc2c(Cl)cccc2Cl)c(=O)c1C#N | 0.169 |
| Cc1cc(C)c(NC(=O)CSc2nccn2C)c(C)c1 | -0.238 |
| CCOC(=O)/C(C#N)=C\C1=C(N2CCCC2)CC(C)(C)OC1 | 0.457 |
| CCN(Cc1ccccc1)c1ccc(/C=N/N2CCOCC2)cc1 | -0.575 |
| COC(=O)CCC(NC(=O)OCc1ccccc1)C(=O)NC(CC(C)C)C(=O)OC (stereo not given) (Cbz-Glu(OMe)-Leu-OMe; configuration not given here) | -0.486 |
| CCOc1ccc(NC(=O)CCN2CCN(S(=O)(=O)c3ccc(OC)cc3)CC2)cc1 | -0.593 |

| SMILES | z-score |
| --- | --- |
| COC(=O)c1c(CSc2cccc(C)c2)noc1C(=O)NCc1ccco1 | -0.487 |
| CC(C)CCn1c(N2CCC(C(N)=O)CC2)nc2c1c(=O)[nH]c(=O)n2C | 0.118 |
| CCCCOC(=O)C1C2C=CC3(CN(CCc4ccccc4)C(=O)C13)O2 (stereo not given) | -0.421 |
| O=C(NCCCn1ccnc1)c1noc2c1CCc1ccccc1-2 | -1.12 |
| C=CCN(CC=C)S(=O)(=O)c1ccc(F)cc1 | -0.198 |
| O=S(=O)(c1ccc(OCC(O)CN2CCCCC2)cc1)N1CCOCC1 (stereo not given) | 0.352 |
| CC(C)Cc1cc(C(=O)O)c2ccccc2n1 | -0.114 |
| Cc1cc(N2CCN(Cc3ccc4c(c3)OCO4)CC2)n2ncnc2n1 | -0.374 |
| C=CCN(CC=C)C(=S)NC(=O)c1ccc([N+](=O)[O-])cc1 | active: 4.84 |
| COC(=O)Cc1cc(=O)n2[nH]c(SC)nc2n1 | 0.0918 |
| COc1ccc(S(=O)(=O)N(C)c2ccc(C(=O)NCCC(C)C)cc2)cc1 | -0.245 |
| Cc1snc(SCC(=O)N/N=C(\N)COc2cccc(C(F)(F)F)c2)c1C#N | -0.185 |
| O=C1CC(C2CCCO2)C(=O)N1Cc1ccccc1 (stereo not given) | 0.636 |
| O=[N+]([O-])c1ccc(N/N=C/c2ccc[nH]2)cc1 | -0.29 |
| CC(C)n1c(-c2ccc(N(C)C)cc2)nc2ccccc21 | 0.782 |
| O=C(COC(=O)c1c2ccccc2cc2ccccc12)Nc1ncc(C(F)(F)F)cc1Cl | -0.128 |
| CCc1nccn1C(=O)c1cnn2c(C(F)F)cc(-c3ccccc3)nc12 | -0.604 |
| CC(=O)c1cccc(N(C(=O)c2ccccn2)C(C(=O)NC2CCCCC2)c2cccs2)c1 (stereo not given) | 1.44 |
| O=C(/C=C/c1cccc(Cl)c1)Nc1ccncc1 | -0.69 |
| O=C(NCc1ccco1)c1ccc(=O)[nH]n1 | -0.537 |
| COC(=O)c1ccccc1NC(=O)C(C)Oc1ccccc1 (stereo not given) | -0.764 |
| CC1CCN(c2ccc(NC(=S)NC(=O)c3ccc(-c4cccc([N+](=O)[O-])c4)o3)cc2)CC1 | -0.0494 |

| SMILES | z-score |
| --- | --- |
| O=C(Cc1ccc(Cl)cc1)NNS(=O)(=O)c1ccc([N+](=O)[O-])cc1 | -0.0889 |
| COc1ccc(NC(=S)N(CCN(C)C)C(C)c2ccco2)cc1Cl (stereo not given) | -0.249 |
| CCNC(=S)NS(=O)(=O)c1ccc(CC)cc1 | -0.175 |
| O=C(COc1ccc(C(=O)Nc2ccc(Cl)cc2)cc1)NCc1ccccc1 | -0.0569 |
| COc1ccc(CCC(=O)Nc2cc(Cl)ccc2N2CCN(C)CC2)cc1 | 0.512 |
| C=CCc1cccc(CNc2nc3ccccc3n2CCC)c1O | -0.0628 |
| COc1ccccc1/C=N/NC(=O)CN(C1=NS(=O)(=O)c2ccccc21)c1ccccc1 | 0.0784 |
| Cc1c(Cl)c([N+](=O)[O-])nn1CCCC(=O)N1CCN(c2ccccc2)CC1 | 0.463 |
| COc1ccc(N2C(=O)c3ccccc3NC2c2ccc(OC)c(COc3ccccn3)c2)cc1 (stereo not given) | -0.453 |
| COc1ccc(CN(CCCN2CCOCC2)S(=O)(=O)N(C)C)cc1OC | -0.34 |
| O=C(CCSc1ccccc1)Nc1ccccc1C(=O)N1CCCC1 | -0.147 |
| CCCC(=O)NCCCCNC(=O)CCC | -0.153 |
| CO/N=C(\CS(=O)(=O)Cc1ccc(OC)cc1)c1ccc(Cl)cc1 | -0.149 |
| CCC(c1nnnn1CCOC)N1CCN(c2cccc(C(F)(F)F)c2)CC1 (stereo not given) | 0.167 |
| Cc1cc(Br)ccc1OCCCCN1CCC(C)CC1 | 0.0252 |
| Cc1[nH]c2ccccc2c1C(=O)COC(=O)CCS(=O)(=O)c1ccccc1Cl | -1.04 |
| O=C(Nc1ccccc1)Nc1ccc2snnc2c1 | -0.373 |
| Cc1ccc(S(=O)(=O)N2CCOCC2)cc1NC(=O)COC(=O)CCC(=O)c1cccs1 | 0.848 |
| COc1ccc(OCC(=O)NNC(=O)c2ccccn2)cc1 | -0.0312 |
| CCOc1ccc(NC(=O)C2(c3ccc(OC)c(OC)c3)CCCC2)cc1 | -0.247 |
| CCOC(=O)c1ccc(N/C=C2\CCCCC2=O)cc1 | -0.151 |
| Cc1ccc(-c2nc3ncccn3c2Nc2ccc3c(c2)OCCO3)o1 | -0.196 |

| SMILES | z-score |
| --- | --- |
| Cc1ccc(NC(=O)CN(C)S(=O)(=O)c2cccc3cccnc23)cc1 | -0.147 |
| COC(=O)c1ccc(/C=N\n2c(C)nnc2C)cc1 | -0.444 |
| CCN(c1ccccc1)S(=O)(=O)c1ccc(NC(=S)NC(=O)c2cccs2)cc1 | 2.75 |
| CC(C)CCOCC(=O)Oc1ccccc1C(=O)O | -0.136 |
| O=C(Nc1cccc(F)c1)OC(CN1CCCCC1)C(F)(F)F (stereo not given) | -0.0064 |
| CSC(=NS(=O)(=O)c1ccccc1)SC | -0.11 |
| COc1ccc(OC)c(N(CC(=O)N2CCC(C)CC2)S(=O)(=O)c2ccccc2)c1 | -0.28 |
| CC(C)c1nc2sc3c(=O)[nH]c(=S)[nH]c3c2c2c1CCC2 | -0.834 |
| CC(OC(=O)C1CC=CCC1C(N)=O)C(Cl)=C(Cl)Cl (stereo not given) | -0.252 |
| CCN(CC)S(=O)(=O)c1cc([N+](=O)[O-])ccc1NNC(=O)Nc1ccccc1OC | 0.0744 |
| COC(=O)c1ccc(NC(=O)C(=O)N2CCN(C(=S)Nc3ccc(C)cc3)CC2)cc1 | -0.0799 |
| COc1ccc(S(=O)(=O)N(C)c2ccc(C(N)=O)cc2)cc1 | -0.471 |
| COC(=O)c1cc(NC(=O)CCc2c(C)nc3ncnn3c2C)cc(C(=O)OC)c1 | -0.436 |
| CCC(CC)C(=O)Nc1cc(=O)n(C)c(=O)n1C | -0.0377 |
| COc1ccc(Nc2nnc(-c3ccccc3)c3ccccc23)cc1C(=O)N1CCCCC1 | -0.462 |
| O=C(Nc1cc2c(ccc3ccccc32)oc1=O)C1CCCCC1 | -0.146 |
| Cc1c(C(=O)NC(C)C)sc2ncn(CC(=O)N3CCC(C)CC3)c(=O)c12 | -0.00251 |
| CCn1c(SCC(=O)N2CCC(C(N)=O)(N3CCCCC3)CC2)nnc1-c1ccccc1 | 2.65 |
| Cc1ccc(S(=O)(=O)c2nc(N3CCOCC3)sc2Cl)cc1 | -1.02 |
| Cc1cnnc2c1-c1no[n+]([O-])c1CC2 | 0.0628 |
| COc1ccc(Cl)cc1NC(=O)C(C)Sc1n[nH]c(N)n1 (stereo not given) | -1.67 |
| O=S(=O)(N/N=C/c1ccc2c(c1)OCCO2)c1ccccc1 | -0.207 |

Reference: PubChem BioAssay AID488969 (Vanderbilt High Throughput Screening Facility, 2010)
